The RNAGym collection of RNA variant scans (doi:10.7554/elife.90254)
Read counts are not given, so values of variants with three or more changes are uncertain.

B1: OR4K15 (parent)
chain: GUUAACGGUCAUAGGCCAUGGAAACUAGGAGCACCAUUUCGCUGCCAGUGAAGAAAUGAACAAAGAAAAUCUGGGCCAGGCAGGCAUCAAAAGAAAUAGUCUUGCGCUCAACCAGAAAGUCUGUAAUCAUUUUAAGGGUA

Variants of: B1
Assay: self-cleavage, relative activity (ratio to wild type); higher = more cleavage; in vitro, sequencing; the parent is a self-cleaving ribozyme

Variant | self-cleavage
G8A A27G A82G | 0.19
A94G A114G A126G | 0.39
A66G A92U A117G | 2.53
C17A A51G A96G | 0.77
A56G G79A A114G U122C | 0.03
A36G U49C A52C | 1.67
U26C A36U U38C A52G A55G A62G A90G U120C | 0.38
A33G A96G A125G | 0.22
C10U A64G A90G | 0.47
U2C U72C A117G U122C | 0.18
A47U A52U A60G A114U A126G | 0.01
U49C A69G A125U | 2.08
A13G A18U G137A | 0.77
U2C A68U A92G A117U U124C | 1.9
G1U A11G C17U U37C A117C | 0.44
G41A A62G A64G A135G | 0.58
A5G U12C A63G A78U A82G | 0.17
A13G A22G G29A A30U A111G U127C | 0.02
U19G A22U A51G A82G A96G | 0.54
A22G A67G U72A A82G A95G A129G | 0.05
A5G A11G A23G G50U A114U | 0.09
C10U U43C A60G A118U U133C | 0.63
C42U A69G A89G | 1.83
A18G A69G U72C | 0.13

Variant | self-cleavage
A92G U122C A126G | 0.97
A55G A62G U122A U131C | 2.18
A5G U9C A64G G137A | 1.18
A23G A68U U70C | 0.47
A30G U103C A114G | 0.16
A63G U72A U108C | 0.02
A30G U39C A82G A86C | 0.23
U9C G20A A94G | 1.33
U39C A78G A92G | 0.24
U38C A56G U97C | 1.71
A33G A89G U120A U139C | 1.04
U2C A13G A51G U87C A98U | 0.75
A36U A51G U72C A95G | 0.48
U19C U87C U108C A110G | 0.02
A86G A118G U132C | 0.92
C10A A33G A94G | 1.01
A55U A67G C105U A118G | 0.01
A67G A118G A129G U131C | 0.31
A23G A47U C85U A98G | 0.21
U37C A114U A117G | 0.04
A47U U100C A111G | 0.01
U2C U39G A78U | 0.04
C25U U49C U57C A92C A111G | 0
A47G G80U A135U | 0.1

Variant | self-cleavage
U3A U49C A51G | 0.73
U72A A82U A96G A140G | 0.18
A18G A62C A68G | 1.29
A23G U102C U130C | 2.3
U43A A59G A116G A134G | 0.4
A18U U39C U100C | 2.55
A5U A23G A90G A118G | 0.5
A24G U39C A67G | 1.41
A63G A67G U127C | 1.27
A62G U102C A125G | 0.46
U49C U70C A116G | 1.36
U38C U49C A78U A95U U108C | 0.01
A27G A64G A94G A96U A111G U124C | 0.01
U87A U103C A114G | 0.22
A18G A96U A129U | 0.94
A24G C40U A68C A118G | 2.05
A22G A55G A116G U120C A126G | 0.22
A33G U39C A64G U102A A135G | 0.72
A52U U72A G93A A126G | 0.29
A55G A64C A117U | 1.01
A52G A69G U120G | 1.06
A30U A33G U70C U87C A129G U131C | 0.14
U26G A55G A56G | 1.26
A33U A52G A60G | 1.22

Variant | self-cleavage
A18U A22G A27G A62G U87A | 1.3
A22G A24U A95G | 1.51
A62G A89U U103C A129G | 1.25
U57G A62G U108C | 0.02
A23G A89G A114G U120A | 0.1
A23G A59G A90G U127C U139C | 0.36
A51G A52G A95G A111G A116G U139A | 0.03
A23G A47U U120C | 0.16
A110G A134C A135G | 0.15
G1A U19A A24G A30G U122C | 1.36
A96G U103C A125G | 0.59
U39C U72A A140G | 0.43
U9C U37C C40U U102C | 1.55
U2A A24G U70C A96G | 1.04
G7U A64G A111G | 0.03
G14A A60G U70C | 0.23
A78U A86G U100C A134G | 0.93
A22G A30G A96G U103C | 0.14
U9A C40A A96G | 1.15
A23U A95U U122A A134G | 1.39
U39C G74A U97A U103A U120C | 0.02
A59G A114G U131C | 0.39
U3A U57C U120C | 0.39
A33G A63G A126G | 0.42

Variant | self-cleavage
A5U G8A A24G A54U A62G U103C | 0.55
A47U U70A U72C U103A | 0.04
U12A U39C A52G A68G | 1.56
A116C U131C A135G | 0.03
A18G U49C A95G | 1.68
A4G A59G A60G A64U A117G | 1.18
U103A A116G U131A | 0.03
A22G A62G A114G | 0.57
A22G A52U A63G U87C | 1.22
U12C A52G U97A | 0.86
U43G U127C U130C | 0.83
U3A G15A A30G C77U A86G A95G A118G | 1.49
A52G A78G U87C A125C | 0.13
U9C A86G U130C | 1.58
U2C A18G U122G | 1.69
A22U U38C U102C U122C A135G | 2.06
U9C U43C A63G | 2.18
U19A A66G A68G | 0.74
A22G A33G C85A A118G | 0.65
A117G A118G A140C | 1.42
A5U A60G U103C | 0.9
G48A A62G A66G A82U | 0.24
G93A A110G U132C | 0.05
A18U U39C A67G | 0.56

Variant | self-cleavage
A4G A11G A54G A64G A69G | 0.54
A23G A64G A68G U87A | 1.63
A11G G93A A114G | 0.38
A56G A78C A91G A129G U130C | 0.04
U12A A110G A117G | 0.35
A59G A114U A126C | 0.01
U39C U70C A94G A116G | 1.56
U19C A56G A86G U131C A140U | 0.74
A11G U100C A117G U130A | 1.14
A23G A33U U87C A118G | 1.83
U12C A78C U97C A114G U132C | 0.01
A22U A23U A66G A89U | 1.28
A62U A69G A118G U130C | 0.25
A68G A69G U100C U122C | 0.9
A24G A27U A86G A114G | 0.47
A11G G41A A52G | 1.23
U49A A51U A91U | 2.03
U3C A13C A59G | 0.5
U2A U49C G79A | 0.24
G8A U124C U133C | 0.04
A27G A69C C107U | 0.03
U9C C25U A47U | 0.54
U39C G50U A117G G123A | 2.02
U12A A27G A78G A91G A116G | 0.14

Variant | self-cleavage
A22G U39C U49A A98G | 0.97
U37C A59G A62G A66G A125G | 0.48
G21A U49C A82U A95U | 0.09
A36C A90G A92G U97C U100C A116G | 0.95
U9C A69G C88A A117G | 1.83
A18G U39A A69G U70C | 0.24
A18U U70C A92G A117G | 0.7
A18G U49C A54G A60G G106A | 0.03
U3A U37C C46G U108C | 0.03
U39A A64G U70C | 0.98
A18C A66U U102C A111G | 0
A36G U49C A63G | 1.81
G29U A36G U38A U49C U131C G138A | 1.52
A51G A68G U87C | 0.3
U9C U19A A96C U132C | 1.33
U2C U9C U70C A86U A111G | 0.01
A59G A63G A92G U139C | 1.74
A13G A24G A27G A52G U132C | 2.05
A11G A66G A117G | 1.22
U12C A54U U70C A114G | 0.09
A63U A78U A117G U130C | 0.21
A11U C81A U87C A126G | 0.1
A47G A68G A82U | 0.15
